Laboratory results taken from publication PMC4336329 (PLoS ONE, 2015).
Out of some 310,000 compounds screened, about 2,200 (0.71%) showed an effect of 50% or more. Effects have a minus sign here. The list shows a part of the results.

The molecules below were run against human ether-à-go-go-related gene (hERG) potassium channel (human, UniProt Q12809) (assay: primary screen, population patch clamp on CHO cells stably expressing hERG).
Sequence of human ether-à-go-go-related gene (hERG) potassium channel (Q12809 whole entry, looked up): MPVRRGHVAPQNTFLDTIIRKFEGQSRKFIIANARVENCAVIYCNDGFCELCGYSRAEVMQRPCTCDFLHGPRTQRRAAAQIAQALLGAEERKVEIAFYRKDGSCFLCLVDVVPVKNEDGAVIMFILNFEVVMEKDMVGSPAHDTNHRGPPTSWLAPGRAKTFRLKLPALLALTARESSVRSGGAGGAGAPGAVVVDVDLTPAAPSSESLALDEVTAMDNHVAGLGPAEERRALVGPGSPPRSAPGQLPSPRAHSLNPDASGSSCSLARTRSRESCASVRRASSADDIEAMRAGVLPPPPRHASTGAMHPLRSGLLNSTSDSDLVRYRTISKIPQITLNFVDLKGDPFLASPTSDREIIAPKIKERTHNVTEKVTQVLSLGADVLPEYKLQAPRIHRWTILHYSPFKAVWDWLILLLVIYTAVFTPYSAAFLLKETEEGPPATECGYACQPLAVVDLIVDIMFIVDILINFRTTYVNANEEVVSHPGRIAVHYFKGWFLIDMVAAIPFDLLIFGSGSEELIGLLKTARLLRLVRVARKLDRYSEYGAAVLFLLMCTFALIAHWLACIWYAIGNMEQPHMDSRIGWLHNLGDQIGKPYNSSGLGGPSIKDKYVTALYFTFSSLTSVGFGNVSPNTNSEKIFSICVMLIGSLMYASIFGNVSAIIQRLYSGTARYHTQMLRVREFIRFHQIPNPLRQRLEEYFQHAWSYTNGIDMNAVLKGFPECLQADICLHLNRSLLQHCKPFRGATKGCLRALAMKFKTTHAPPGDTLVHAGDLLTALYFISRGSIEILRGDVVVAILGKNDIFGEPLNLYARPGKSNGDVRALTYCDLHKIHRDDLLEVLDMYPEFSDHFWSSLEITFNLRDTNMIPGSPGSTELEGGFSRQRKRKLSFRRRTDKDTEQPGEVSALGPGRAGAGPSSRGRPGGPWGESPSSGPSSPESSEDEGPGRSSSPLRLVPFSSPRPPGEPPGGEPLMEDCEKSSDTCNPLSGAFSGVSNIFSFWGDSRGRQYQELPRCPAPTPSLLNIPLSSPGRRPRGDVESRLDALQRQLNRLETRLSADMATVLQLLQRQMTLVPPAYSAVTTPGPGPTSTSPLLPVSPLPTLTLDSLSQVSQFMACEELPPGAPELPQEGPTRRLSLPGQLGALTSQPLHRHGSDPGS

Row | Structure (SMILES) | hERG current change (%, negative = inhibition) at 1uM [%]
1 | CCC(C)(C)C1CCc2[nH]nc(C(=O)NCCCNC(=O)OC(C)(C)C)c2C1 (centres unmarked) | 11.6
2 | CCCOc1ccc(C(F)(F)F)cc1NC(=O)c1cc(C)on1 | 0.427
3 | CCN1CCN(c2ccc(S(=O)(=O)N3CCCCC3)cc2NC(=O)/C=C/c2ccc(F)cc2)CC1 | 8.36
4 | Cc1cc(C)n(-c2cc(N3CCN(C(=O)c4cccc(F)c4)CC3)ccc2[N+](=O)[O-])n1 | -40.3
5 | COC(=O)c1ccccc1C(=O)N(c1ccccc1)c1ccccc1 | 11.2
6 | Cc1cc(OCC(=O)N(C)Cc2ccccc2)ccc1Br | 16
7 | Cc1cc(C)c(C(=O)N2CCCC(CNC(=O)C3(c4ccc(Cl)cc4)CC3)C2)c(=O)[nH]1 (centres unmarked) | 7.33
8 | CSc1nc(Oc2ccc3ccccc3c2)c2ccccc2n1 | 16
9 | CCC(C)[C@H](NC(=O)OC(C)(C)C)C(=O)N/N=C/c1cccc2nccnc12 (some centres unmarked) | -9.2
10 | O=C(O)C1CC=CCC1C(=O)Nc1cccc([N+](=O)[O-])c1 (centres unmarked) | 7.21
11 | COc1ccc(-c2nn(CCC#N)cc2C=C(C#N)C#N)cc1 | 6.92
12 | C=CCSC1=C(C#N)C(c2ccc(C(C)C)cc2)CC(=O)N1 (centres unmarked) | 3.05
13 | COC/C=C/C1=CC2=CC(=O)C(C)(OC(=O)c3cnc4ccccc4n3)C(=O)C2=CN1c1ccc(CO)cc1 (centres unmarked) | -12.3
14 | O=C(Nc1cccc(OC(=O)c2ccc(Br)o2)c1)c1ccccc1 | 9.2
15 | CC(Sc1nc2cc([N+](=O)[O-])ccc2n1-c1ccc(F)cc1)C(=O)NCc1ccc2c(c1)OCO2 (centres unmarked) | 6.68
16 | Cc1cc(SCC(=O)N2CCC(c3noc4ccc(F)cc34)CC2)nc2ccccc12 | -0.78
17 | COC(=O)Cc1c(C)nc2nc(-c3ccc(Cl)cc3)[nH]n2c1=O | 6.86
18 | O=C(N/N=C/c1c(O)ccc2ccccc12)c1ccc[n+](CCO)c1.[Cl-] | 8.18
19 | Cc1cc(NC(=O)c2cccc(COc3ccc(Br)cc3)c2)no1 | 4.41

Row | Structure (SMILES) | hERG current change (%, negative = inhibition) at 1uM [%]
20 | COC(=O)c1ccc(NC(=S)Nc2ccc3ccccc3c2)cc1 | 19
21 | CC(=O)Nc1ccc(C(=O)OC2CCCCC2=O)cc1 (centres unmarked) | 11
22 | CC1(C)CC(=O)c2cc(NC(=O)c3ccccc3)c(=O)oc2C1 | 29.3
23 | CCOC(=O)N1CCN(C(=O)CCC2CCCC2)CC1 | 10.1
24 | Cc1ccc(S(=O)(=O)N2CC(C)N(C(=O)N3CCOCC3)C2)cc1 (centres unmarked) | 8.94
25 | COc1ccc(CC(=O)Nc2ccc(OC(C)=O)cc2C(=O)O)cc1 | -3.47
26 | CCOc1ccc(C(O)c2nccn2C)cc1 (centres unmarked) | 13.8
27 | S=C(NNc1ccnc2cc(Cl)ccc12)Nc1ccccc1Cl | 11.1
28 | Brc1ccccc1-n1nnc(-c2nccs2)n1 | 10.6
29 | O=C(Nc1ccc(S(=O)(=O)N2CCCC2)cc1)C1COc2ccccc2O1 (centres unmarked) | 3.69
30 | C/C=C/c1ccc(OC)c(OC(C)=O)c1 | 5.15
31 | O=C(CCn1nnc2ccccc21)OCC(=O)c1ccc(F)cc1 | 2.32
32 | CCOC(=O)N1CCC(N2Cc3cccc(C(=O)Nc4ccc(OC)c(OC)c4)c3C2=O)CC1 | -4.54
33 | O=C(NCc1ccco1)c1ccc(OCC2CCCO2)cc1 (centres unmarked) | -14.4
34 | Cc1oc(-c2cc3c(cc2Cl)OCO3)nc1CN1CCCC(C(=O)N2CCOCC2)C1 (centres unmarked) | 5.53
35 | CCC(C)(C(=O)NC1CCCC1)N(Cc1cccs1)C(=O)Cc1cccs1 (centres unmarked) | -6.62
36 | Cn1c(=O)oc2cc(S(=O)(=O)N3CCOCC3)ccc21 | 9.83
37 | Cc1ccn(CC(=O)N/N=C/c2cc([N+](=O)[O-])ccc2O)n1 | 7.21
38 | Cc1ccc(/C=C/C(=O)Nc2nccs2)o1 | 3.62

Row | Structure (SMILES) | hERG current change (%, negative = inhibition) at 1uM [%]
39 | Cc1ccc2nccc(C(=O)N3CCCC(N4CCN(c5ccc(F)cc5)CC4)C3)c2c1 (centres unmarked) | -5.78
40 | Fc1ccccc1Cn1nnc(-c2ccc3c(c2)OCO3)n1 | 8.58
41 | CC(C)c1ccc2oc(-c3ccc(N)cc3)nc2c1 | 8.3
42 | Cn1c(=O)c(=O)n(C)c2cc(S(=O)(=O)N3CCOCC3)ccc21 | -0.569
43 | CC(=O)NC(c1cc(Cl)c2cccnc2c1O)C(C)C (centres unmarked) | 6.11
44 | COc1ccc([C@H]2Oc3cc(O)cc(O)c3C(=O)C2[C@@H]2C(=O)c3c(O)cc(O)cc3O[C@@H]2c2ccc(OC)cc2)cc1 (some centres unmarked) | 10.6
45 | Cc1cccc(Cn2c(C(=O)OC(C)C)cc3c2ccn3C)c1 | 8.55
46 | Cc1ccc(C)c(Cn2c3ccccc3c3cnn(CC(=O)NCCCN4CCOCC4)c(=O)c32)c1 | 5.8
47 | CN1CCN(C(=S)c2ccc(Cl)cc2)CC1 | 10.7
48 | O=C(Cn1c(=O)c2cccn2c2ccc(F)cc21)N1CCN(c2ccc(F)cc2)CC1 | 16.6
49 | NNC(=O)c1ccc2[nH]c3c(c2c1)CCCC3 | 10.1
50 | O=C(NCc1ccco1)Nc1ccc2snnc2c1 | 4.77
51 | Cc1c(C(=O)c2ccc([N+](=O)[O-])cc2)c(=O)n(C)c(=O)n1C | 1.89
52 | Cn1c(=O)n(C)c2cc(NC(=O)c3ccccc3[N+](=O)[O-])c(Br)cc21 | 7.77
53 | CCn1c(SCC(=O)NCc2ccco2)nc2ccccc2c1=O | -0.68
54 | O=C(NCc1cccnc1)c1ccc(Br)o1 | 18.3
55 | Cc1nc(C)c(-c2ccc(SCC(=O)Nc3ccc(F)cc3F)nn2)s1 | 9.24
56 | O=C(NCCNc1ccc2ccccc2c1)c1cccn2c(=O)c3sccc3nc12 | 1.09
